In PubChem BioAssay AID485294 (National Center for Advancing Translational Sciences (NCATS), 2010):
Screen size: about 370,000 compounds; about 150 (0.041%) were called active. This list was built around the results that the source calls inconclusive (neither active nor inactive); the mix of calls is not that of the screen. Calls come from the whole dose curve; as a rule, active = well fitted inhibition curve with a large enough effect; inconclusive = small, poorly fitted or top-dose-only effect; inactive = flat fitted curve, though single readings scatter. No potency is given beside an inconclusive call; the fits are too rough.

Each compound was assayed against Beta-lactamase (Escherichia coli (strain K12)) (UniProt P00811) (assay: qHTS Inhibitors of AmpC Beta-Lactamase (assay with detergent)). Settings: AmpC hydrolysis of nitrocefin, absorbance 480 nm, 0.01% Triton; series mostly up to 114 µM.
Method in brief: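 AmpC (5.3 nM in the dispensed reagent) in 20 mM phosphate pH 7.0 with 0.01% (detergent screen) or 0.0001% Triton X-100 was preincubated with compounds for 15 min at room temperature. Nitrocefin was then added from an 800 uM solution, and hydrolysis was followed at 480 nm.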
Note: nearly all actives have a fitted effect of over 25% in size.
Potency is the fitted concentration of half-maximal effect; tags give direction and shape of the fitted curve.

UniProt P00811, sequence (P00811 whole entry, looked up): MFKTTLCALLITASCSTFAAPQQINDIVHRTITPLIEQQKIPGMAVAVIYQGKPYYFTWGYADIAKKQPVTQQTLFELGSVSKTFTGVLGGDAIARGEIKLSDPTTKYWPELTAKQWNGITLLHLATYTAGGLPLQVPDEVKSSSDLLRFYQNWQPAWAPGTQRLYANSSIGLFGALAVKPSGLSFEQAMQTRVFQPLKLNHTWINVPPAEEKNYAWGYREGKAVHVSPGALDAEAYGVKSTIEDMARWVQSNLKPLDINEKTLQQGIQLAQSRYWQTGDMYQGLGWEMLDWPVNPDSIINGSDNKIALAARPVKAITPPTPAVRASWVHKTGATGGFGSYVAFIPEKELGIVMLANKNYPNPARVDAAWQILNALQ

SMILES | Potency
COc1ccc(NC(=O)CN(C)CC(=O)Nc2ccc3c(c2)CCC3)cc1 | inconclusive [inhibitor, full curve, poor fit]
CC(=O)NCC(=O)OCC(=O)Nc1nc(-c2ccccc2)cs1 | inconclusive [inhibitor, single point]
COc1ccc2c(c1)CC/C(=C\Nc1ccc3c(c1)OCO3)C2=O | inactive
O=[N+]([O-])c1ccc(NC2CCN(Cc3ccccc3)CC2)c2ccncc12 | inconclusive [inhibitor, partial curve]
COc1ccc(C(=O)Nc2ccncc2)cc1OC | inconclusive [inhibitor, full curve, poor fit]
COc1cc(C2NC(=O)NC(C)=C2C(=O)OC(C)(C)C)ccc1OCC(N)=O (configuration not stated) | inconclusive [inhibitor, full curve, poor fit]
Cc1onc(-c2ccccc2Cl)c1C(=O)NCc1ccco1 | inconclusive [inhibitor, partial curve, poor fit]
CCCOC(=O)c1[nH]c2c(c1C)C(=O)CC(c1cccs1)C2 (configuration not stated) | inconclusive [inhibitor, full curve, poor fit]
COc1ccc(N2CCN(C(=O)CCC(=O)N3CCOc4ccc(C)cc43)CC2)cc1 | inconclusive [inhibitor, partial curve, poor fit]
CCOC(=O)c1c(NC(=O)CSc2n[nH]c(N)n2)sc(CC)c1C | inconclusive [inhibitor, single point]
O=C(Nc1ccc(F)cc1F)c1csc(-c2cccs2)n1 | inconclusive [inhibitor, full curve]
CN1CCN(c2nnc(-c3ccc(F)cc3)c3ccccc23)CC1 | inconclusive [inhibitor, full curve]
COc1ccc2ccccc2c1/C=N/NC(=O)c1cccc(Br)c1 | inconclusive [inhibitor, full curve]
Cc1ccccc1OCC(=O)Nc1ccc(-c2nc3cc(Cl)cc(Cl)c3o2)cc1 | inactive
CN1CC2([N+](=O)[O-])CC=C(Oc3ccccc3)C([N+](=O)[O-])(C1)C2 (configuration not stated) | inconclusive [inhibitor, partial curve, poor fit]
CCCN(C(=O)CCc1nc(-c2ccc(C)cc2)no1)c1ccc(OCC)cc1 | inactive
O=C(Cn1cc2c(n1)CCCC2)N1CCCc2ccccc21 | inactive
Cc1ccc(N2C(=O)C(CC(=O)Nc3cccc(F)c3)N(CCc3ccccc3F)C2=O)cc1 (configuration not stated) | inactive
O=C(CSc1n[nH]c(=O)n1-c1ccccc1)Nc1ccccc1C(F)(F)F | inconclusive [inhibitor, full curve, poor fit]
Cc1noc(C)c1COc1ccccc1C(=O)NCc1ccco1 | inconclusive [inhibitor, full curve, poor fit]
COC(=O)Cn1c(=NC(=O)c2ccc([N+](=O)[O-])s2)sc2cc(Br)ccc21 | inconclusive [inhibitor, full curve]
COc1cc(C)ccc1OCC(=O)NC1CCCCCC1 | inconclusive [inhibitor, full curve, poor fit]
N=c1c2c(-c3ccccc3)c(-c3ccccc3)n(Cc3ccco3)c2ncn1CCN1CCOCC1 | inconclusive [inhibitor, full curve, poor fit]

SMILES | Potency
CCNC(=O)CSc1nc2ccccc2c(=O)n1CCCOC(C)C | inconclusive [inhibitor, full curve, poor fit]
Cc1ccc(CNC(=O)c2ccc(Cn3c(SCc4ccc(F)cc4)nc4cccnc43)cc2)o1 | inactive
COc1cccc2sc3ccc(C#Cc4ccc(N)cc4)cc3c(=O)c12 | inconclusive [inhibitor, full curve, poor fit]
CC(Oc1ccc2ccc(=O)oc2c1)C(=O)NCCN1CCOCC1 (configuration not stated) | inactive
O=C(NCc1ccco1)c1cc2sccc2n1Cc1ccccc1 | inconclusive [inhibitor, single point]
Cc1ccc(C(=O)Cn2c(NCCO)nc3ccccc32)cc1 | inactive
COc1ccc(COC(=O)c2ccc(N3CCCC3=O)cc2)cc1F | inconclusive [inhibitor, full curve, poor fit]
Cc1cccc(-n2c(-c3ccco3)nc3ccccc3c2=O)n1 | inconclusive [inhibitor, partial curve]
CCOc1ccc(N2CC(O)=C(c3ccccc3)C2=N)cc1 | inconclusive [inhibitor, full curve, poor fit]
COc1ccc(-n2nc(C(=O)NCC(=O)N3CCN(c4cccc(Cl)c4)CC3)c3ccccc3c2=O)c(OC)c1 | inconclusive [inhibitor, full curve, poor fit]
FC(F)c1nnc2ccc(Cl)nn12 | inconclusive [inhibitor, full curve, poor fit]
COc1ccc(N2CCN(C(=O)CNS(=O)(=O)c3ccc(C)cc3)CC2)cc1 | inconclusive [inhibitor, partial curve]
CCOc1ccc(S(=O)(=O)c2cn(CC)c3ccc(F)cc3c2=O)cc1 | inactive
CCOC(=O)c1nnn(C(CC)C(=O)Nc2ccc(F)cc2)c1C(=O)OCC (configuration not stated) | inactive
CNC(=O)c1cc(NC(=O)CCn2nc(-c3ccccc3)c3ccccc3c2=O)ccc1OC | inactive
COc1ccc(C(=O)N2CCC(C(=O)Nc3ccc(C)cc3)CC2)cc1 | inconclusive [inhibitor, single point]
O=c1n(-c2ccccc2)c(=O)n2n1CCC2 | inconclusive [inhibitor, full curve]
CCN(CC)C(=O)c1cn(-c2ccccc2)nc1-c1ccc2c(c1)OCCO2 | inactive
COc1cc(C(O)CN)ccc1O (configuration not stated) | inconclusive [inhibitor, full curve, poor fit]
Cc1sc2ncnc(SCC(=O)N3c4ccccc4Sc4ccc(Cl)cc43)c2c1C | inactive
COC(=O)C(C)NC(=O)C1CCCN1S(=O)(=O)c1cc(C)c(Cl)cc1C (configuration not stated) | inactive
COc1ccc(S(=O)(=O)N2CCN(CC(=O)c3ccc(O)c(O)c3)CC2)cc1 | inactive
Cc1cccc2cc(CN(Cc3ccc(F)cc3)Cc3nnnn3C3CCCC3)c(=O)[nH]c12 | inconclusive [inhibitor, single point]

SMILES | Potency
CCCCN(CCCNC(=O)C1CCCN(S(=O)(=O)CC)C1)Cc1ccccc1 (configuration not stated) | inconclusive [inhibitor, full curve, poor fit]
N#Cc1ccccc1OCC(=O)OCC(=O)Nc1ccc2c(c1)OCO2 | inactive
COc1cc(C(=O)NCCN2C(=O)S/C(=C\c3cccs3)C2=O)cc(OC)c1OC | inconclusive [inhibitor, full curve, poor fit]
C[C@@H](C(=O)NCC1CC1)[C@H]1C[C@]1(C)[C@H](NC(=O)OCc1ccccc1)c1ccccc1 | inconclusive [inhibitor, partial curve, poor fit]
O=C(OCCOc1ccc(Br)cc1)c1ccc(Cl)nc1 | inconclusive [inhibitor, partial curve, poor fit]
COCCNC(=S)N(CCc1c(C)[nH]c2ccc(C)cc12)Cc1cc(OC)c(OC)c(OC)c1 | inactive
CN1CCN(S(=O)(=O)c2ccc(Sc3nnnn3-c3ccccc3)c([N+](=O)[O-])c2)CC1 | inconclusive [inhibitor, full curve, poor fit]
Cc1c2cc(O)c(=O)cc-2oc2cc(O)c(O)cc12 | inconclusive [inhibitor, single point]
CCN(CC)S(=O)(=O)c1ccc(OCCNS(C)(=O)=O)cc1 | inconclusive [inhibitor, full curve, poor fit]
CC(Cc1c[nH]c2ccccc12)C(=O)O (configuration not stated) | inconclusive [inhibitor, partial curve]
O=C1CCCCN1CCC(=O)N1CCCC(Nc2ccc(F)c(F)c2)C1 (configuration not stated) | inactive
O=C(c1ccc(N2C(=O)CCC2=O)cc1)N1CCOCC1 | inconclusive [inhibitor, partial curve, poor fit]
COc1cccc(OCC(=O)NC2CC(=O)N(c3cccc(OC)c3)C2)c1 (configuration not stated) | inactive
COc1ccc2[nH]c(O)c(N=NC(=O)c3ccc(NS(=O)(=O)c4cccs4)cc3)c2c1 | inconclusive [inhibitor, full curve, poor fit]
COc1ccc(NC(=O)CSc2nnc(NC(=O)C3CCC3)s2)c(OC)c1 | inconclusive [inhibitor, full curve, poor fit]
COc1cccc2cc(C(=O)CS(=O)(=O)c3ccc(C)cc3)c(=O)oc12 | inactive
CCOc1ccc(-c2nnc(-c3ccccc3)o2)cc1 | inconclusive [inhibitor, partial curve, poor fit]
Nc1nc(CN2CCCCCC2)nc(Nc2ccc(F)cc2)n1 | inactive
COc1cccc(/C=C2\C(=O)C(=O)c3ccccc32)c1 | inconclusive [inhibitor, full curve, poor fit]
CC(=O)N1c2ccccc2NC2=C(C(=O)CCC2)C1c1cccnc1 (configuration not stated) | inconclusive [inhibitor, full curve, poor fit]
Cc1ccc2nc(NC(=O)C3CCCN(S(=O)(=O)c4cnc[nH]4)C3)sc2c1 (configuration not stated) | inconclusive [inhibitor, partial curve, poor fit]
